The whole screen tested about 310,000 compounds, of which about 2,200 (0.71%) showed an effect of 50% or more. The effect is printed as a negative number. The list shows a part of the results.

human ether-à-go-go-related gene (hERG) potassium channel, sequence (Q12809 whole entry, looked up): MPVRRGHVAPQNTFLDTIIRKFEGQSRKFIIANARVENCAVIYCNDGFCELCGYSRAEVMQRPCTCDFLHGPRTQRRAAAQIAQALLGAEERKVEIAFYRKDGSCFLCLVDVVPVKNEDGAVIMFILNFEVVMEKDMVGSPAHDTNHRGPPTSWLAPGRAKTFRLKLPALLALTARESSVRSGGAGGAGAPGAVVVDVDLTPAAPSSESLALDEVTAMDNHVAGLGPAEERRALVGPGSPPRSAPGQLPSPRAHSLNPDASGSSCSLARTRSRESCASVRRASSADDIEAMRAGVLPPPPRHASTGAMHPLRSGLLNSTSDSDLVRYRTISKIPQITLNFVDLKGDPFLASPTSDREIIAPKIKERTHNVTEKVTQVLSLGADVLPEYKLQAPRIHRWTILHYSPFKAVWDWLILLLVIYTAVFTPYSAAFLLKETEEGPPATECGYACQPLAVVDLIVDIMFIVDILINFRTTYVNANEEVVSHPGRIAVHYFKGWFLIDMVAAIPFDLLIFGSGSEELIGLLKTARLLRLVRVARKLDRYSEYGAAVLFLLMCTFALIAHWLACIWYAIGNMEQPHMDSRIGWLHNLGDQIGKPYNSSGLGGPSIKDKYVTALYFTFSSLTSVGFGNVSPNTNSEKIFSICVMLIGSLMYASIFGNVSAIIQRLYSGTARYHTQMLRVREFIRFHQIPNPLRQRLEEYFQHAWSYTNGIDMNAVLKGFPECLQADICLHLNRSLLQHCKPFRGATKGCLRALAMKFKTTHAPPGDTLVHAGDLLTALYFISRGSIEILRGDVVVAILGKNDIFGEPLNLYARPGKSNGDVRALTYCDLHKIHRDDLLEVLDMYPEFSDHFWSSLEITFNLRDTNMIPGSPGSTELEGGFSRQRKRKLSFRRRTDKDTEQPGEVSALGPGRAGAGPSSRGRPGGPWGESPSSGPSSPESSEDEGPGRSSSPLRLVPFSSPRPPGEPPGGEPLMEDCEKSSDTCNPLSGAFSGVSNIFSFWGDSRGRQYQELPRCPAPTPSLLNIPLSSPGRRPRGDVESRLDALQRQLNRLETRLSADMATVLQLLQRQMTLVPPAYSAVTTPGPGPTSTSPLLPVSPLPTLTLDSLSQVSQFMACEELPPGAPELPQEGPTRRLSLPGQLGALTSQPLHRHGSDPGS

The assay has as its target human ether-à-go-go-related gene (hERG) potassium channel (human, UniProt Q12809). Nature of the assay: primary screen, population patch clamp on CHO cells stably expressing hERG.
As for `O=C(N=C1SC2CS(=O)(=O)CC2N1c1ccccc1)C1CC1` (centres unmarked), the “hERG current change (%, negative = inhibition) at 1uM” value came out at 20.5%.

`Cc1ccc(S(=O)(=O)N2CCCC(c3nc(-c4ccc(C)o4)no3)C2)cc1` (centres unmarked): the “hERG current change (%, negative = inhibition) at 1uM” value amounted to 16%. With `CCCCS/C(=C(/C#N)C(N)=O)c1cc2c([nH]1)CCCC2`, the “hERG current change (%, negative = inhibition) at 1uM” value is given as 4.58%. Regarding `CCn1c(C)nc2cc(C(=O)N/N=C/c3ccc(OC)cc3)ccc21`, the “hERG current change (%, negative = inhibition) at 1uM” value is given as -6.56%. Consider `Cc1ccccc1NC1c2ccccc2C(=O)N1Cc1ccco1` (centres unmarked), for which the “hERG current change (%, negative = inhibition) at 1uM” value worked out at 10.8%. The result for `Cn1c(C2CCCCC2)nc2ccccc21` reads 9.64%. As for `O=C(c1ccc2c(c1)OCO2)N1CCN(c2ccccc2F)CC1`, the “hERG current change (%, negative = inhibition) at 1uM” value stood at 6.98%. With `Cl.c1ccc(CC2CNc3ccccc3CN2)cc1` (centres unmarked), the “hERG current change (%, negative = inhibition) at 1uM” value was 9.82%. Turning to `O=C(/C=C/c1ccc(F)cc1)c1cc(Br)ccc1O`, the “hERG current change (%, negative = inhibition) at 1uM” value was 13%. `CCOC(=O)[C@H]1[C@H]2COc3ccc(OC)cc3[C@@H]2N2C(=O)CN(CCc3c[nH]c4ccccc34)C(=O)[C@@]12C`: the “hERG current change (%, negative = inhibition) at 1uM” value worked out at 10.8%.

`CC1CN(C(=O)c2cc3cc([N+](=O)[O-])ccc3s2)CC(C)O1` (centres unmarked): the “hERG current change (%, negative = inhibition) at 1uM” value is -0.52%. With `Cc1ccccc1C(=O)NNC(=O)c1ccc(Br)cc1`, the “hERG current change (%, negative = inhibition) at 1uM” value was -1.2%.

Consider `COc1cc(/C=N/Nc2ccccc2[N+](=O)[O-])cc(OC)c1O`, for which the “hERG current change (%, negative = inhibition) at 1uM” value is given as 6.81%.

With `COc1ccccc1N1CCN(C2CCCN(C(=O)c3ccoc3C)C2)CC1` (centres unmarked), the “hERG current change (%, negative = inhibition) at 1uM” value was found to be 7.21%.

Consider `CCC(C)(C)NC(=O)C(c1ccc(OC)cc1)N(CC1CCCO1)C(=O)CCC(=O)Nc1cc(C)on1` (centres unmarked), for which the “hERG current change (%, negative = inhibition) at 1uM” value was found to be 0.889%. In the case of `CCOC(=O)c1cc(NC(=O)Nc2cc(C)ccn2)c(C)nc1C`, the “hERG current change (%, negative = inhibition) at 1uM” value was determined as 9.8%.

`Cc1cc(NC(=O)NCc2ccccc2)c(=O)n(Cc2ccc(F)cc2)c1`: the “hERG current change (%, negative = inhibition) at 1uM” value is listed as 21.1%. As to `COCCn1c(SCc2cc(=O)n3ccsc3n2)nnc1-c1ccncc1`, the “hERG current change (%, negative = inhibition) at 1uM” value is 13.8%.

Turning to `COc1cccc(CN(C)Cc2cc(=O)oc3c(C)c(C)ccc23)c1`, the “hERG current change (%, negative = inhibition) at 1uM” value is given as 14.1%. With `Cc1nc(CN(C)C(=O)c2cc(COc3ccc4ncccc4c3)on2)cs1`, the “hERG current change (%, negative = inhibition) at 1uM” value turned out to be 6.62%. Turning to `COc1c(F)c(F)c(C(=O)Nc2ccccc2N2CCN(C(=O)C(C)C)CC2)c(F)c1F`, the “hERG current change (%, negative = inhibition) at 1uM” value is reported as 10.4%. The result for `Br.N=C1CCCN1CC(=O)c1ccc(Cl)cc1` reads 6.92%; that for `O=C(O)CS/C(=C\c1ccc(F)cc1)c1nc2ccccc2s1`, 3.35%; that for `COC(=O)c1cn(NC(=O)/C=C/c2cccc(OC)c2OC)c(=O)c2ccccc12`, 6.73%. Take `Cc1nn(C)c(C(=O)Sc2cccc(Cl)c2)c1[N+](=O)[O-]`: the “hERG current change (%, negative = inhibition) at 1uM” value was 15.7%. As to `COc1ccc([N+](=O)[O-])cc1N(CC(O)CN1CCCCC1)S(=O)(=O)c1ccc(C)cc1` (centres unmarked), the “hERG current change (%, negative = inhibition) at 1uM” value is -17.7%.

Consider `CCCCNC(=O)C1CCC(CNS(=O)(=O)c2cccc3nsnc23)CC1` (centres unmarked), for which the “hERG current change (%, negative = inhibition) at 1uM” value was determined as 12.1%. As to `CCCC(CCC)C(=O)O`, the “hERG current change (%, negative = inhibition) at 1uM” value amounted to 13.6%. For the molecule `CC(C(=O)Nc1cccnc1)n1cc([N+](=O)[O-])cn1` (centres unmarked), the “hERG current change (%, negative = inhibition) at 1uM” value amounted to 14.7%. With `O=C(CCN1CCOCC1)Nc1ccc2c(c1)CCC2`, the “hERG current change (%, negative = inhibition) at 1uM” value is 3.78%.

In the case of `CCOC(=O)N1CCN(C(=O)CCCn2c(=S)[nH]c3ccsc3c2=O)CC1`, the “hERG current change (%, negative = inhibition) at 1uM” value came to 10.7%. The result for `O=C(COC(=O)C1CCCCC1)Nc1cc([N+](=O)[O-])ccc1F` reads 20.6%; that for `O=C(NCCN1CCCCC1)Nc1cccc(Cl)c1Cl`, 6.05%; that for `Cc1ccc(N(C)S(=O)(=O)c2ccc(C)cc2)cc1`, 2.74%. The result for `COc1ccc(C2CC(=O)c3cnc(NC(=O)c4ccco4)nc3C2)cc1` (centres unmarked) reads 11.5%; that for `O=C(N/N=C/c1cccnc1)C12CC3CC(CC(C3)C1)C2`, 17.9%.

Take `O=C(c1cccc2ccccc12)N1CCCCC1`: the “hERG current change (%, negative = inhibition) at 1uM” value was determined as 12.6%. Consider `CN(Cc1ccccc1Cl)C(=O)c1cnccc1C(F)(F)F`, for which the “hERG current change (%, negative = inhibition) at 1uM” value is on record as 9.94%. For `O=C(CSc1nnc(-c2ccc(Cl)cc2)n1Cc1ccco1)NCc1ccc2c(c1)OCO2`, the “hERG current change (%, negative = inhibition) at 1uM” value is listed as -51.6%. In the case of `O=c1c2c(-c3ccccc3)ccnc2[nH]n1-c1ccccc1`, the “hERG current change (%, negative = inhibition) at 1uM” value came out at 13.4%. The result for `CCC(=O)N1CC2(c3ccccc3)CN(C(=O)CC)CC(c3ccccc3)(C1)C2=O` reads 8.28%; that for `CN(Cc1ccc(Cl)cc1)C(=O)COC(=O)c1ccc(-c2ccc(O)cc2)cc1`, 7.15%. Regarding `CCOC(=O)N1CCN(C(=O)c2ccc3c(=O)n(Cc4ccccc4)c(=S)[nH]c3c2)CC1`, the “hERG current change (%, negative = inhibition) at 1uM” value is given as 17%. With `CC(C)CNC(=S)NC1CC2CCCC(C1)N2Cc1cccs1` (centres unmarked), the “hERG current change (%, negative = inhibition) at 1uM” value is listed as -4.59%. In the case of `Cc1cc(=O)oc2c(C)c(OCC(=O)NCCc3ccc(S(N)(=O)=O)cc3)ccc12`, the “hERG current change (%, negative = inhibition) at 1uM” value is reported as 2.27%. Turning to `CCOc1ccc(-c2nnn(CC#N)n2)cc1OC`, the “hERG current change (%, negative = inhibition) at 1uM” value is reported as 2.16%. On to `CCOC(=O)c1cc(C)sc1NC(=S)Nc1ccccc1`, for which the “hERG current change (%, negative = inhibition) at 1uM” value is 11.2%. Consider `Cc1ccc(NC(=O)C2COc3ccccc3O2)cc1C` (centres unmarked), for which the “hERG current change (%, negative = inhibition) at 1uM” value was 17.4%. Take `COc1ccc(Br)c(C(=O)NNC(=O)c2ccc(NS(=O)(=O)c3cccs3)cc2)c1`: the “hERG current change (%, negative = inhibition) at 1uM” value worked out at 10.7%. Turning to `Cc1cc(CNC(=S)Nc2ccc(S(=O)(=O)Nc3ncccn3)cc2)nn1C`, the “hERG current change (%, negative = inhibition) at 1uM” value is recorded as 10.2%. On to `Cc1ccccc1CN1CCC(CNC(=O)Nc2ccc(F)cc2F)CC1`, for which the “hERG current change (%, negative = inhibition) at 1uM” value is -0.0521%. Regarding `CS(=O)(=O)c1ccc2nnn(OCC(=O)Nc3ccc(Br)cc3Br)c2c1`, the “hERG current change (%, negative = inhibition) at 1uM” value is recorded as 4.14%.

On to `CCOc1ccc(CN(C)C(=O)c2ccc(NS(=O)(=O)c3ccc4[nH]c(=O)[nH]c4c3)cc2)cc1`, for which the “hERG current change (%, negative = inhibition) at 1uM” value is reported as 23.5%. The result for `COc1cc(OC)cc(-c2nc(-c3ccccc3)no2)c1` reads 8.16%.

Take `COc1cccc(CC(=O)N2CCN(c3ccccc3[N+](=O)[O-])CC2)c1`: the “hERG current change (%, negative = inhibition) at 1uM” value turned out to be 8.1%. In the case of `Cc1ccc2nc(-c3cccc(N)c3)oc2c1`, the “hERG current change (%, negative = inhibition) at 1uM” value was 3.87%. Consider `COc1cc(C2CC(=O)Oc3c2c(=O)n(C)c2ccccc32)ccc1O` (centres unmarked), for which the “hERG current change (%, negative = inhibition) at 1uM” value was found to be 10.3%. The value for `O=C(c1ccccc1)c1ccc(OC(=O)N2CCOCC2)cc1` was -2.42%; that for `CCC1CCCCN1C(=O)COc1ccc(S(=O)(=O)N2CCOCC2)cc1Cl` (centres unmarked) was -5.71%; that for `CCn1c(CNc2ccc(Cl)cc2)nnc1SCc1ccccc1` was 2.39%.

`CCN(Cc1ccncc1)C(=O)c1ccc2c(c1)S(=O)(=O)c1ccccc1C2=O`: the “hERG current change (%, negative = inhibition) at 1uM” value is given as -11.7%. For the molecule `CCCCNC(=S)Nc1ccc2cn[nH]c2c1`, the “hERG current change (%, negative = inhibition) at 1uM” value is -1.69%. The value for `COc1ccc(C2NC(=O)NC(O)(C(F)(F)F)C2C(=O)c2ccc(F)cc2)cc1` (centres unmarked) was 7.9%; that for `COc1ccc(CC(=O)NCC2(N3CCCCC3)CCCCC2)cc1` was 11.2%; that for `CC1CCN(S(=O)(=O)c2nnc(NC(=O)c3ccccc3Br)s2)CC1` was -3.65%. For `Cc1ccsc1C1NC(=O)c2ccccc2N1` (centres unmarked), the “hERG current change (%, negative = inhibition) at 1uM” value was 3.74%.

As for `Cc1cccc(NC(=O)CNC(=O)COC(=O)c2ccc(C(C)(C)C)cc2)c1C`, the “hERG current change (%, negative = inhibition) at 1uM” value was 0.857%. Consider `O=c1[nH][nH]cc1C=Nc1cc(Cl)ccc1O`, for which the “hERG current change (%, negative = inhibition) at 1uM” value is on record as -1.23%. The result for `CCCN1CCN(CCCNC(=O)CCN2C(=O)COc3ccccc32)CC1` reads 14.9%; that for `Cc1ccc(NC(=O)C2CCN(S(=O)(=O)c3cccc4cccnc34)CC2)nc1`, 4.21%; that for `C=CCOc1ccc(CNc2nn[nH]n2)cc1`, 18.1%. For the molecule `Cc1ccc(Cc2nc(-c3ccccn3)no2)cc1`, the “hERG current change (%, negative = inhibition) at 1uM” value was 13.7%. Take `CCc1ccc(C(=O)NNC(=O)C2CC(=O)N(c3ccc4c(c3)OCCO4)C2)cc1` (centres unmarked): the “hERG current change (%, negative = inhibition) at 1uM” value came to 3.77%.

Regarding `O=C1C2=C(SCCS2)C(=O)N1CCCO`, the “hERG current change (%, negative = inhibition) at 1uM” value is -2.17%.

Turning to `CN(C)CCN(Cc1ccco1)C(=O)c1oc2ccccc2c1NC(=O)COc1ccccc1`, the “hERG current change (%, negative = inhibition) at 1uM” value is -79.3%. Consider `N#Cc1c(N)n[nH]c1CCCN`, for which the “hERG current change (%, negative = inhibition) at 1uM” value was 6.66%. Regarding `CCCn1c(SCC(=O)Nc2ccc3c(c2)OCCO3)nnc1-c1ccco1`, the “hERG current change (%, negative = inhibition) at 1uM” value is -8.32%. For `CSc1nc(C)cc(OCNC(=O)c2cccs2)n1`, the “hERG current change (%, negative = inhibition) at 1uM” value turned out to be 7.64%. As for `O=C1c2cccnc2C(Nc2ccc(S(=O)(=O)N3CCCCCC3)cc2)N1Cc1ccccc1` (centres unmarked), the “hERG current change (%, negative = inhibition) at 1uM” value is on record as 10.1%. As for `CN1C(=O)c2cccc3c(S(=O)(=O)N(C)C)ccc1c23`, the “hERG current change (%, negative = inhibition) at 1uM” value was 10.9%. For `NC(=O)c1cc(N2CC2)c([N+](=O)[O-])cc1[N+](=O)[O-]`, the “hERG current change (%, negative = inhibition) at 1uM” value was 9.05%. For the molecule `CCOC(=O)[C@H]1[C@H]2COc3ccc(C)cc3[C@@H]2N2C(=O)CN(Cc3ccc(OC)cc3)C(=O)[C@@]12C`, the “hERG current change (%, negative = inhibition) at 1uM” value was found to be 14%. For `Nc1cc(=O)[nH]c(SCC(=O)N2N=C(c3ccc(Cl)cc3)CC2c2ccco2)n1` (centres unmarked), the “hERG current change (%, negative = inhibition) at 1uM” value was 8.46%. The result for `COC(=O)C1=C(c2cccc(OCc3ccccc3)c2)C[C@@H]2CC[C@H]1N2C(=O)NCc1ccc(Cl)cc1` reads 14.9%; that for `O=C(NC1CCCC1)c1cnc2n(c1=O)CCS2`, 10.8%; that for `CCOc1ccc(C2CC(=O)NC2=O)cc1` (centres unmarked), 3.63%. The value for `COCCN1C(=O)/C(=C/c2ccc(Oc3ccc([N+](=O)[O-])cn3)c(OC)c2)SC1=Nc1ccccc1` was 12.8%; that for `CCOc1ccc(N(CC(=O)NCc2ccccc2)C(=O)Cn2nnc(-c3ccc(C)o3)n2)cc1` was 7.76%.

With `COc1ccc(CC(NC(C)=O)C(=O)NC2CCN(c3nnnn3-c3ccccc3)CC2)cc1` (centres unmarked), the “hERG current change (%, negative = inhibition) at 1uM” value turned out to be 11.7%.

Source of the values: PMC4336329 (PLoS ONE, 2015).
